This is one part of the list. Viral Rep nickase domains cut single-stranded DNA in vitro at 3 µM enzyme and 37 °C for 1 h; the strands have 90 letters, of which the middle is given. Numbers give uncut DNA relative to the enzyme-free pool, as log2; the lower, the more was cut; hits are not called. Reads are scaled to the total; values above 0 arise when much of the pool is cut.
test system: T1, Rep nickase domain of tomato golden mosaic virus; test: uncleaved DNA left, log2 of reads against the no-enzyme library (log2 ratio); higher = less cleavage (more negative = more Rep cleavage of the k-mer); sequences stand for … in CTCGTCCG…ACCGGAGA
T1 sequence (residues 1-124, tag not shown): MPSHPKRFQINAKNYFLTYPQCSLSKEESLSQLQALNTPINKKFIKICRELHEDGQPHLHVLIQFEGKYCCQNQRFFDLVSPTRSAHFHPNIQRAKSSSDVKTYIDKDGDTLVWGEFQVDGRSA
Experimental: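 A pool of 90-nt single-stranded DNAs with seven random bases just before the constant AC of the nick site (name = the seven bases) was cut by 3 µM recombinant His6-SUMO-tagged Rep nickase domain (300 nM DNA, 50 mM HEPES pH 8.0, 50 mM NaCl, 1 mM MnCl2, 1 h, 37 °C, three replicates). Uncut DNA was amplified and sequenced.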

Sequence | uncleaved DNA left (log2)
CACAACG | -0.0252
CCAACTC | -0.0475
GCGTTGT | -0.118
TTGCAAG | -0.211
AACAAAT | 0.19
CGGAATT | -0.219
GAGGCAG | 0.109
AAGTTAA | 0.0217
TGAGGGC | 0.0148
GTTGTGT | -0.0348
CGTCCAT | -0.193
AAGTATG | 0.294
CCCCTGA | -0.0326
TGCCAGC | -0.0487
CATCTCT | -0.0918
TCTCGCT | -0.0452
GTCGCCG | 0.0599
AAGTCAT | 0.0329
CTTATAT | -0.0396
GCCCTCG | -0.0735

Sequence | uncleaved DNA left (log2)
TCCCAAC | 0.0448
TGGATCG | 0.0251
AGCCCGT | -0.0331
TACTTAC | -0.0793
CCGCAAG | 0.0797
AAGTCAG | 0.146
CTAAAAA | 0.0982
TCTTTCA | 0.0166
CCAATCC | -0.0771
AACCGGT | -0.0965
TCCGGAT | 0.086
TACGCAC | -0.0716
GGCTCGT | 0.108
GTCCACT | 0.146
CGCTATT | -0.17
GTTGACC | 0.019
GGGTTAC | -0.0152
AGATTAC | -0.0195
GGCGCAA | 0.0678
GAGGAGG | 0.124

From the supplement of paper PMC7826260
